Legend:
Test in all cases: ELISA (FIG. 8)
[1] = molecular target: T1, C-10 peptide (PSMGFR minus 10 amino acids from the C-terminus)
T1 construct: also called C-10 PSMGFR; PSMGFR C-10
T1 peptide: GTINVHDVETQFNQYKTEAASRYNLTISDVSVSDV
From the text: (§1) The huMN-E6 scFv-Fc bound to the PSMGFR peptide and to the PSMGFR N−10 peptide but not to the PSMGFR C−10 peptide. The parent MN-E6 antibody and the humanized MN-E6 require the C-terminal 10 amino acids of PSMGFR for binding.

[2] = molecular target: T2, N-10 peptide (PSMGFR minus 10 amino acids from the N-terminus)
T2 construct: also called N-10 PSMGFR; PSMGFR N-10
T2 peptide: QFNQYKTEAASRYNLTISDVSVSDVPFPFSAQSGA
From the text: as §1

[3] = molecular target: T3, PSMGFR peptide (Primary Sequence of the MUC1 Growth Factor Receptor)
T3 construct: synthetic peptide immobilised on ELISA plates; also called MUC1* peptide; MUC1* extra cellular domain peptide
T3 peptide: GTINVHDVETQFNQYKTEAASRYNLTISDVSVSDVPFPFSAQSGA
From the text: as §1

binding result [1]: no binding | binding result [2]: binds | binding result [3]: binds
B1: humanized MN-E6 scFv-Fc (Fc fusion)
chain: DAAQPAEVQLVESGGGLVKPGGSLRLSCAASGFTFSRYGMSWVRQAPGKRLEWVSTISGGGTYIYYPDSVKGRFTISRDNAKNTLYLQMNSLRAEDTAVYYCTRDNYGRNYDYGMDYWGQGTLVTVSSGGGGSGGGGSGGGGSEIVLTQSPATLSLSPGERATLTCSATSSVSYIHWYQQRPGQSPRLLIYSTSNLASGIPARFSGSGSGSDYTLTISSLEPEDFAVYYCQQRSSSPFTFGSGTKVEIK[letters of human IgG1 Fc left out]
notes: also called huMN-E6 scFv-Fc; hMN-E6 scFv-Fc

— patent US20220184120A1 (MINERVA BIOTECHNOLOGIES, published 2022)
